Laboratory results: ChEMBL document CHEMBL1201862, “PubChem BioAssay data set” (2004)
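Interpolation was linear, between the two tested concentrations surrounding the appropriate level; five concentrations were tested over 48 hours in 96-well plates. Abbreviation: GI50, concentration required for 50% inhibition of growth.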 Active and inactive are the calls of the source. Rule as the data show it: active = GI50 up to about 1.1 µM and inactive = higher. Square brackets hold non-standard residues; d marks the D form. Peptide text beside a SMILES is read from it. * marks the point of attachment. ξ: configuration not given here. NMeF = CN[C@@H](Cc1ccccc1)C(=O)O; NMeV = CN[C@H](C(=O)O)C(C)C; ξNMeN = CNC(CC(N)=O)C(=O)O; NMeA = CN[C@@H](C)C(=O)O; ξNMeV = CNC(C(=O)O)C(C)C; Boc = CC(C)(C)OC(=O)*

System: NCI-H322M
Assay: NCI tumour cell line growth inhibition, 48 h

SMILES	GI50
COc1ccc(-n2c(-c3ccccc3)cc(-c3cccs3)c2-c2cccs2)cc1	inactive: > 100 µM
O=C(O)c1cnc2cc(OCc3ccccc3)ccc2c1O	inactive: 19.8 µM
CC(C)C[S+]1C2=C(CC(C)(C)CC2=O)[N-]c2ccccc21 (stereo not drawn)	inactive: 95.7 µM
COc1nc(N)c(NC(C)=O)c(=O)n1C	inactive: > 100 µM
CC(=O)c1c(-c2ccco2)c(C#N)c(=S)n(C2OC(CO)C(O)C(O)C2O)c1C (stereo not drawn)	inactive: > 100 µM
COc1ccc(Nc2nc3c(N)cc(C(F)(F)F)cc3nc2-c2ccccc2)cc1OC	inactive: 31.6 µM
CCCCCCCCCCCCCCCCCCNC(=S)N/C=C1/C(=O)C=C(C)OC1=O	inactive: 23 µM
O=C(Nc1cccc(-c2cn3ccccc3n2)c1)c1ccncc1	inactive: 39.7 µM
COC(=O)C1=C(c2cc(OC)c(OC)c(OC)c2)OC(c2cc(OC)c(OC)c(OC)c2)C1 (stereo not drawn)	inactive: 55.2 µM
CCOP(=O)(OCC)/C(C#N)=C/c1ccc(-c2ccc(F)cc2F)o1	inactive: 17.9 µM
O=[N+]([O-])c1ccc(/C=C/c2ccc(/C=C/c3ccc([N+](=O)[O-])cc3[N+](=O)[O-])cc2)c([N+](=O)[O-])c1	inactive: > 100 µM
CCN(CC)CCn1nc2c3c(c(NCCN)ccc31)Sc1cc(O)ccc1-2	active: 0.638 µM
CC[N+](C)(CC)CCNC(=O)C(O)(c1ccccc1)c1ccccc1	inactive: > 10 µM
CCCCCCCC/C=C\CCCCCCCC(=O)OC[C@]1(CO)CCC(=O)O1	inactive: > 100 µM
Cc1ccc(C2COc3cc(O)c(O)cc3C2)cc1 (stereo not drawn)	inactive: 57.5 µM
COC(=O)C(=O)C(C(=O)C(N)=O)c1nc2ccc(C(=O)c3ccccc3)cc2nc1O (stereo not drawn)	inactive: > 100 µM
CCN1CCC(O)(/C=C/c2ccc(C)cc2C)C(C(=O)/C=C/c2ccc(C)cc2C)C1 (stereo not drawn)	inactive: 3.33 µM
Nc1nc(S)nc2snnc12	inactive: > 100 µM
O=S(=O)(O)c1ccc2c(/N=N/c3ccc(/N=N/c4ccccc4)cc3)c(O)c(S(=O)(=O)O)cc2c1	inactive: > 100 µM
CC1(C)C(C#N)C1C1=C(N2CCOCC2)[C@]2(C)C(OC(=O)c3ccccc3)CC[C@@H]2C1 (stereo partly drawn)	inactive: > 100 µM
CCN(CC)CCN(C)c1ccc(CO)c2c1c(=O)c1ccccc1[s+]2[O-] (stereo not drawn)	inactive: 7.03 µM
CC12CCCC(C#N)(C1)OC2=O (stereo not drawn)	inactive: > 100 µM

SMILES	GI50
O=C(NCCc1ccc(F)cc1)c1cc(/C=C/c2cc(O)ccc2O)ccc1O	inactive: 12.7 µM
NS(=O)(=O)c1ccc(NC(=O)c2cccc3c(Nc4ccc(S(N)(=O)=O)cc4)c4ccccc4nc23)cc1	inactive: 32.8 µM
O=C(Nc1cnc(O)nc1O)Oc1ccccc1	inactive: > 100 µM
Cc1cc(Br)c(O)c(-c2cscn2)c1	inactive: 24.6 µM
CC/C(Cl)=N\OC(=O)Nc1ccc(F)cc1F	inactive: 18.2 µM
O=C(OCC(Cl)(Cl)Cl)O[C@@H]1CCCC1(c1ccccc1)c1ccccc1	inactive: > 100 µM
CCOC(=O)c1c(-c2ccccc2)c(OC)cn1C	inactive: > 10 µM
COc1cc2c(/C=C3/C(=O)N(C)c4ccccc43)c(Cl)[nH]c2cc1C	inactive: 2.53 µM
CCOC(=O)Cn1c(=O)c2nc(SC)sc2n(-c2ccc(C)cc2)c1=S	inactive: > 61.8 µM
COC(=O)/C=C(\S/C=C(/c1ccccc1)N1CCn2c(C(=O)c3ccccc3)c(C(=O)OC)c(C(=O)OC)c21)C(=O)OC	inactive: > 10 µM
CCCC(CCC)C(=O)O [VALPROIC ACID]	inactive: 9400 µM
Clc1ccc(C2ON=C(c3ccccc3)N2C23CC4CC(CC(C4)C2)C3)cc1Cl (stereo not drawn)	inactive: > 10 µM
CN(C)Cc1cc(C(=O)/C=C/c2ccc(Cl)c(Cl)c2)cc(CN(C)C)c1O	inactive: 3.09 µM
CCNc1ccc2c(c1)C(=O)N(OS(C)(=O)=O)C2=O	inactive: > 100 µM
Cc1ccc([N+](=O)[O-])cc1S(=O)(=O)Nc1ccc(C2=NNC(c3ccccc3O)C2)cc1 (stereo not drawn)	inactive: 24.7 µM
C=C1C(=O)OC2/C=C(/C)C3(O)OC(C)(CC(OC(=O)C(C)C)C12)CC3OC(C)=O (stereo not drawn)	inactive: 38.9 µM
O=C(O)[C@H](NS(=O)(=O)c1ccc2ccccc2c1)c1ccccc1	inactive: > 100 µM
[O-][S+](Cc1ccccc1)c1nc2ccccc2nc1-c1cccs1 (stereo not drawn)	inactive: 15.6 µM
CC(=O)Nc1cc(Cl)cc(Cl)c1O	inactive: > 100 µM
Cc1ccc(-c2c(C#N)c(-c3ccccc3)n(NS(=O)(=O)c3ccccc3)c(=O)c2C#N)cc1	inactive: > 100 µM
Nc1ccc(C(=O)NN2C(=O)C(Cl)C2c2cc(Br)ccc2O)cc1 (stereo not drawn)	inactive: > 100 µM
O=C(CC(C(=O)c1cccs1)c1ccsc1)c1cccs1 (stereo not drawn)	inactive: 71.1 µM

SMILES	GI50
COc1cc(OC)cc(OCc2ccc3nc(-c4ccccc4)c(Cl)nc3c2)c1	inactive: 86.9 µM
CC1(C)CC2=C(SC3C=CC=CC3N2)C(=O)C1C(=O)C(N)=O (stereo not drawn)	inactive: > 100 µM
COc1nn(Cc2ccccn2)c2ccc([N+](=O)[O-])cc12	inactive: > 100 µM
CC(C)n1c(=O)c2nn3c(=O)n(C(C)C)c(=O)c3nn2c1=O	inactive: > 100 µM
NCCc1ccc2oc3cc(=O)c4ccccc4c-3nc2c1	inactive: 3.2 µM
N#Cc1c(-c2ccccc2)c(C=O)c(=O)n2c1[nH]c1ccccc12	inactive: 92.3 µM
N#Cc1ccnc(C(=O)N2CCCC2C(=O)O)c1 (stereo not drawn)	inactive: > 100 µM
CCOC(=O)CCC(C(=O)OCC)n1nnc2cc(Nc3c(C)[n+]([O-])c4cc(F)c(OCC)cc4[n+]3[O-])ccc21 (stereo not drawn)	inactive: > 100 µM
COC(=O)[C@H](C)N(C)C(=O)C(CC(N)=O)N(C)C(=O)[C@H](Cc1ccccc1)N(C)C(=O)[C@@H]1CCCN1C(=O)[C@H](C(C)C)N(C)C(=O)C(C(C)C)N(C)C(=O)[C@@H](NC(=O)OC(C)(C)C)C(C)C (stereo partly drawn) (Boc-V[ξNMeV][NMeV]P[NMeF][ξNMeN][NMeA]-OMe)	inactive: > 50 µM
O=c1c2cc(Br)ccc2oc2nc3n(c(=O)c12)CCCS3	inactive: > 100 µM
CC(=O)OCCn1c(Cc2ccc([N+](=O)[O-])cc2)nn(C(C)=O)c1=O	inactive: > 100 µM
CC1(C)[C@@H]2CC[C@@]1(C)[C@@H]1O[C@@H](O[C@@H](CN)c3cc(Cl)c(OCc4ccccc4)c(OCc4ccccc4)c3)C[C@H]21	active: 0.174 µM
CN(C)NC1=NS(=O)(=O)c2cc3c(=O)n(C)[nH]c3cc2S1	inactive: > 10 µM
O=[N+]([O-])c1ccc(C(O)/C(=N/O)c2nc3ccc(Cl)cc3nc2O)cc1 (stereo not drawn)	inactive: > 100 µM
C1COC2SC3=C(SC(=C4SC5=C(SCCS5)S4)S3)SC2O1 (stereo not drawn)	inactive: > 100 µM
CC1(C)C=C(/C=N/Nc2ccccc2)C(C#N)=C(O)C1(C#N)C#N	inactive: > 100 µM
Cc1ccc2nc(-c3ccc(NC(=O)c4ccc(N)cc4)c(S(=O)(=O)O)c3)sc2c1	inactive: > 100 µM
C=C1CC[C@@H]2C13[C@@H]1[C@H](CC(=O)[C@@]23C)C1(C)C (stereo partly drawn)	inactive: 46 µM
Cc1ccc(S(=O)(=O)N/N=C2\CCCCC23CCC(=O)NC3)cc1 (stereo not drawn)	inactive: > 100 µM
COc1ccc(NC=O)c(C(=O)CCNC(C)=O)c1	inactive: > 100 µM
NC(CSS(=O)(=O)c1ccccc1)C(=O)O (stereo not drawn)	inactive: > 10 µM
COC(=O)/C(C)=C(/CCC1(C)OCCO1)O[Si](C)(C)C	inactive: 33.2 µM

SMILES	GI50
CC1(C)CC[C@]2(C(=O)O)CC[C@]3(C)C(=CC[C@@H]4[C@@]5(C)CC[C@H](OC6OC(CO)C(O)C(O)C6OC6OC(CO)C(O)C(O)C6O)C(C)(C)[C@@H]5CC[C@]43C)[C@@H]2C1 (stereo partly drawn)	inactive: 14.8 µM
COc1cc([C@@H]2c3cc4c(cc3[C@H](OC3OC5COC(c6ccco6)OC5C(O)C3O)C3COC(=O)[C@@H]32)OCO4)cc(OC)c1OC (stereo partly drawn)	inactive: 4.24 µM
CCCCN(C(=O)c1ccccc1)C1CCC(=O)c2[nH]c3ccccc3c21 (stereo not drawn)	inactive: 42.7 µM
CCCCCCCCCCCCCCCCOCC(CC(F)(F)P(=O)(OCC)OCC)OC(C)=O (stereo not drawn)	inactive: 17.1 µM
C/C(CC1SCCCS1)=C(/C)CC1SCCCS1	inactive: > 100 µM
Cn1c(=O)cc(NNc2ccc(Br)cc2)[nH]c1=O	inactive: 3.75 µM
Cc1csc(=S)n1OC(=O)NC1CCCCC1	inactive: 75.3 µM
CCOC(=O)n1ccc2c(C(=O)OC)c(C(=O)OC)cc(/C(=C/C(=O)OC)C(=O)OC)c21	inactive: > 100 µM
CC(C)c1cccc(=O)c(O)c1 [HINOKITIOL]	inactive: 11.9 µM
CC1CCC2(CC1)NN=c1s/c(=C\c3ccc(O)cc3)c(=O)n1N2 (stereo not drawn)	inactive: > 100 µM
O=c1cc(NNc2cccc(F)c2)[nH]c(=O)[nH]1	inactive: > 100 µM
CC1=CC(=O)N2C(OC[C@@H]2c2ccccc2)O1 (stereo partly drawn)	inactive: > 100 µM
O/N=C(/CC(O)(C(F)(F)F)C(F)(F)F)c1ccccc1	inactive: > 10 µM
CC[C@@H](O)C[C@H]1CCC[C@@]2(C[C@@H]3OC(=O)/C=C/[C@@](C)(O)[C@@H](O)[C@H](C)[C@@H](O)[C@H](OC4CCC(N(C)C)C(C)O4)[C@@H](O)[C@](C)(O)CCCCC/C=C/[C@@H]4CC(C)(C)O[C@@]4(O)C[C@H](O2)[C@H]3C)O1 (stereo partly drawn)	inactive: 9.59 µM
Cn1ncc2c(NCCc3ccccc3)nc(Cl)nc21	inactive: 22.9 µM
CC(C)CCCC(C)[C@H]1CCC2[C@@H]3CCC4Cc5nc6c(nc5C[C@]4(C)C3CC[C@@]21C)CC1CC[C@@H]2C(C[C@@H](O)[C@@]3(C)C2C[C@@H]2OC4(CCC(C)CO4)C(C)[C@@H]23)[C@@]1(C)C6 (stereo partly drawn)	inactive: > 100 µM
CC(=O)NC(CCCN(Cc1ccccc1)C(=O)NCCCl)C(=O)NCc1ccccc1 (stereo not drawn)	inactive: > 100 µM
c1ccc([I+]c2ccccc2)cc1	inactive: > 100 µM
C/C(=C\CO)CC/C=C(\C)CNc1ccccc1	inactive: 1.39 µM
CC(=O)c1c2c(cc3c1CC1(Cc4cc5c(cc4C1)CCCC5)C3)CCCC2	inactive: > 100 µM
CC(C)(C)c1cc(C2=NNC(c3ccccc3)C2)cc(C(C)(C)C)c1O (stereo not drawn)	inactive: 20 µM
C[C@@H](NC1CCCC[C@@H]1O)c1ccccc1 (stereo partly drawn)	inactive: > 100 µM
